# About 100 (0.036%) of roughly 280,000 compounds were called active. The inconclusive results got no clear call from the source; some entries with a clear call stand among them for comparison. The call rests on the fitted dose curve; in most records, active means well fitted inhibition curve with a large enough effect in the signal ratio, with a control signal flat (not every such curve was filed as active); inconclusive means small, poorly fitted or top-dose-only effect, or effect the other way, or a change in a side signal; inactive means no such curve, though single readings can be large or run the other way; the % refers to the signal ratio. Where the call is inconclusive, the potency comes from a doubtful curve fit. A note “side channel” means that the fit belongs to a control or component signal, not to the main read-out.
# Biological target: Muscleblind-like protein 1 (Homo sapiens) (UniProt Q9NR56)
# Sequence of UniProt Q9NR56 (Q9NR56 whole entry, looked up): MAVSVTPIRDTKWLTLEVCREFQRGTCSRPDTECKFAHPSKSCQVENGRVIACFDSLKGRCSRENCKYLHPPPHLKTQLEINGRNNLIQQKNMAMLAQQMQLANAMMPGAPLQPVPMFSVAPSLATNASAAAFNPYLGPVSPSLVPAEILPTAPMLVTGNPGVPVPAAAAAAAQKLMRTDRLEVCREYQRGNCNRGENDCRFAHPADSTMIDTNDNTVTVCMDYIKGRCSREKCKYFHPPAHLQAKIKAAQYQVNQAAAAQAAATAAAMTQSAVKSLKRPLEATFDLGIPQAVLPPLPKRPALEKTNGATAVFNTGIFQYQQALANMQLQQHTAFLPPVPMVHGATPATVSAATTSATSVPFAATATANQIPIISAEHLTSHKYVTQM
# Assay: qHTS Assay for Inhibitors of MBNL1-poly(CUG) RNA binding
# Conditions: TR-FRET MBNL1-His/biotin-(CUG)12 binding, 665/545 ratio; series mostly up to 57.5 µM
# Procedure, shortened: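 MBNL1-His + Biotin-(CUG)12, cpd titration 92 nM–58 uM; Tb anti-His Ab 0.055 ng/ul, SA-XL665 5 nM (final); 60 min RT; ratiometric 665/545 nm, Ex 340 nm; normalized to buffer and full-complex controls.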
# Potency means the concentration at half of the fitted maximal effect; tags describe the fitted curve by direction and shape or compound fluorescence and quenching.
row,Structure (SMILES),Potency
1,CN1CCN(c2ccc([N+](=O)[O-])c(SCCO)c2)CC1,"inconclusive: 15.8 µM [quencher, side channel, partial curve]"
2,COc1ccc(OCC(=O)Nc2ccc(Cl)cc2C(=O)c2ccccc2)cc1,inactive
3,CCC(=O)Nc1ccc(C(=O)NNC(=O)c2cc([N+](=O)[O-])cc([N+](=O)[O-])c2)cc1,"inconclusive: 14.1 µM [quencher, partial curve]"
4,Cc1cccc(-n2c(O)c(/C=C/C=Nc3ccccc3)c(=O)[nH]c2=O)c1,"inconclusive: 5.01 µM [quencher, side channel, full curve, poor fit]"
5,C/C=C/C(=O)OCC(=O)Nc1ccc(OC)c(Cl)c1,"inconclusive: 7.08 µM [quencher, side channel, single point]"
6,O=C(c1ccc2nc(-c3ccco3)c(-c3ccco3)nc2c1)N1CCC2(CC1)OCCO2,"inconclusive: 8.91 µM [quencher, side channel, partial curve]"
7,CC1CN(c2ccc([N+](=O)[O-])c3cccnc23)CC(C)N1 (stereo not drawn),"inconclusive: 14.1 µM [quencher, side channel, partial curve]"
8,Cc1ncc([N+](=O)[O-])n1CCOC(N)=O,"inconclusive: 17.8 µM [quencher, side channel, partial curve]"
9,Cc1cccn2c(=O)c(C=Nc3ccccc3)c(NCc3ccco3)nc12,"inconclusive: 39.8 µM [quencher, single point]"
10,CCOP(=O)(OCC)/C(C#N)=C/c1ccc(-c2ccc(F)cc2F)o1,"inconclusive: 15.8 µM [quencher, side channel, partial curve]"
11,Cc1ccccc1CN1CCCN(Cc2ccc(Cl)cc2)S1(=O)=O,inactive
12,Cc1c(Br)c(=O)oc2cc(OCC(=O)N3C[C@H]4C[C@@H](C3)c3cccc(=O)n3C4)ccc12,"inconclusive: 11.2 µM [quencher, side channel, partial curve]"
13,Oc1cc2c(cc1O)[C@H]1c3ccccc3CN[C@@H]1CC2,inactive
14,CC(C)OP(=O)(OC(C)C)C(Nc1ccc([N+](=O)[O-])cc1)c1cccc([N+](=O)[O-])c1 (stereo not drawn),"inconclusive: 15.8 µM [quencher, side channel, partial curve]"
15,O=[N+]([O-])c1ccc(N2CCNCC2)cc1NC1CC1,"inconclusive: 7.08 µM [quencher, side channel, partial curve]"
16,COc1cc(/C=C(/C)[N+](=O)[O-])ccc1OCc1ccccc1Cl,inactive
17,COc1cc(O)c(C(=O)O)c(-c2cc(O)c(O)cc2C)c1,inactive
18,Cc1cccc2c1=NC(=O)/C(=C/c1c(O)[nH]c(=O)[nH]c1=O)C=2,"inconclusive: 20 µM [quencher, side channel, partial curve]"
19,CN1CCC(N(C)c2nc(-c3ccc([N+](=O)[O-])cc3)nc3ccccc23)CC1,"inconclusive: 0.794 µM [quencher, side channel, full curve, poor fit]"

row,Structure (SMILES),Potency
1,O=c1[nH]c(CN2CC=C(c3ccccc3)CC2)nc2scc(-c3ccccc3)c12,inactive
2,CCCCCCCC(=O)OCC(O)CO (stereo not drawn),"inconclusive: 79.4 µM [inhibitor, partial curve]"
3,C=CCn1c(O)c(C(CC)=NCc2cc(OC)cc(OC)c2)c(=O)[nH]c1=O,"inconclusive: 1.26 µM [quencher, side channel, partial curve]"
4,Cc1cc(/C=C2\C(=O)NC(=O)N(c3cccc(F)c3)C2=O)c(C)n1-c1ccc(C(=O)O)c(Cl)c1,inactive
5,CN1c2ccc([N+](=O)[O-])cc2CC2(C(=O)NC(=O)N(c3ccc(Br)cc3)C2=O)C1c1ccccc1 (stereo not drawn),inactive
6,O=c1[nH]c(=S)n(Cc2ccc(F)cc2)c(O)c1/C=N/N1CCCCC1,"inconclusive: 0.562 µM [fluorescent, side channel, full curve, poor fit]"
7,O=[N+]([O-])c1cc(-c2ccc([As](=O)(O)O)cc2)ccc1[As](=O)(O)O,"inconclusive: 14.1 µM [quencher, side channel, partial curve]"
8,CN(C)C(=O)Oc1ccc2nnc3ccnn3c2c1,"inconclusive: 15.8 µM [quencher, side channel, partial curve]"
9,Cc1ccc2c(CN3CC=C(c4ccccc4)CC3)cc(=O)oc2c1C,"inconclusive: 10 µM [quencher, partial curve, poor fit]"
10,C=CCn1c(-c2ccc([N+](=O)[O-])cc2)n[nH]c1=S,"inconclusive: 17.8 µM [quencher, side channel, partial curve]"
11,Cc1ccc(/C=C(/C#N)C(=O)NC(=O)Oc2ccccc2)cc1,"inconclusive: 39.8 µM [quencher, side channel, single point]"
12,O=C(C1CCN(CC2CCCCC2)CC1)N1CCCC1,"inconclusive: 2 µM [fluorescent, side channel, full curve, poor fit]"
13,CN(C)C(=O)Oc1cc(=O)n2c3c(cccc13)CCC2,"inconclusive: 3.16 µM [quencher, side channel, single point]"
14,O=C(O)c1ccccc1S,"inconclusive: 126 µM [inhibitor, partial curve]"
15,O=c1[nH]c(O)c(N=Nc2cc([N+](=O)[O-])ccc2O)c(=O)[nH]1,"inconclusive: 6.31 µM [quencher, side channel, partial curve]"
16,N#CC(=Cc1ccc(O)c(O)c1)C(N)=S,"inconclusive: 12.6 µM [quencher, side channel, partial curve]"
17,Cn1cccc1/C=C1/C(=O)NC(=O)N(Cc2ccccc2)C1=O,"inconclusive: 8.91 µM [quencher, side channel, single point]"
18,CN1C(=O)C(Cc2nc3ccccc3c(=O)n2-c2ccccc2)c2ccccc21 (stereo not drawn),inactive
19,CN1C(=O)C(=Cc2ccc(N3CCCCCC3)o2)C(=O)N(C)C1=S,"inconclusive: 1.78 µM [quencher, side channel, partial curve, poor fit]"

# — PubChem BioAssay AID2675 (National Center for Advancing Translational Sciences (NCATS), 2010)
